Measurements taken from publication PMC4336329 (PLoS ONE, 2015).
The campaign covered roughly 310,000 compounds. About 14,000 (4.5%) showed an effect of 50% or more. Effects have a minus sign here. This is one part of the list.

Each molecule was assayed against human ether-à-go-go-related gene (hERG) potassium channel (human, UniProt Q12809) (assay: primary screen, population patch clamp on CHO cells stably expressing hERG).
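Further: peak tail current of the secondary pulse compared with the same well before compound.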

Chain of human ether-à-go-go-related gene (hERG) potassium channel (Q12809 whole entry, looked up): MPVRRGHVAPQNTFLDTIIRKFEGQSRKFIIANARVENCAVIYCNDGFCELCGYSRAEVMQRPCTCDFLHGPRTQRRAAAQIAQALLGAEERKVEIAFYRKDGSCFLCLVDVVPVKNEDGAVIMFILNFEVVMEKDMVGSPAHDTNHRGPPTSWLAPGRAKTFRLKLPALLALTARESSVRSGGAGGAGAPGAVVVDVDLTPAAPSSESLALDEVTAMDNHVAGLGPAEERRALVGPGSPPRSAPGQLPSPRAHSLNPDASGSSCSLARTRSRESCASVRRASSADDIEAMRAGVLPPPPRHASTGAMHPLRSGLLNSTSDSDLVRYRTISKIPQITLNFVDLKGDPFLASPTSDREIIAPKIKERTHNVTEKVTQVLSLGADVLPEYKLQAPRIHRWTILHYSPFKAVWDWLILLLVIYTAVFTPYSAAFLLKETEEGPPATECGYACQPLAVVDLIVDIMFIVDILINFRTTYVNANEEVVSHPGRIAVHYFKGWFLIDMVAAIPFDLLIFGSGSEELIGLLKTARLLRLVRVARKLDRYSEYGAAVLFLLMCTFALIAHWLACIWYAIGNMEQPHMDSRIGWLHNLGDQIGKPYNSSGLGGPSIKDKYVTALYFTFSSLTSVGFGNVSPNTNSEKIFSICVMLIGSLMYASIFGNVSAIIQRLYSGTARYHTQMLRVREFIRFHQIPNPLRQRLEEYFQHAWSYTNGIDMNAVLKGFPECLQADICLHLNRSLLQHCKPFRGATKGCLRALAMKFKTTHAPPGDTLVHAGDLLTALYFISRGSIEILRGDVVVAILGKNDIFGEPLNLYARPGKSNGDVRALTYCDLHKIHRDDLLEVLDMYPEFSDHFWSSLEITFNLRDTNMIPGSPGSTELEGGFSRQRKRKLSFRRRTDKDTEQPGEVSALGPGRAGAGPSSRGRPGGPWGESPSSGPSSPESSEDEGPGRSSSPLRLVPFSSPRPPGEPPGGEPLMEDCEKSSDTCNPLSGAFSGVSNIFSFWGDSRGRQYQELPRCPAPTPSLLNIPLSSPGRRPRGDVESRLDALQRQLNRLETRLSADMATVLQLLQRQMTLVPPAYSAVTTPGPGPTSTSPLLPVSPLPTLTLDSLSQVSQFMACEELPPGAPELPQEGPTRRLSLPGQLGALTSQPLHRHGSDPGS

Point of comparison: `Cc1ccc(C(C)C)c(OCCn2ccnc2C)c1.O=C(O)C(=O)O`, “hERG current change (%, negative = inhibition) at 10uM” value -35.1%. Against it:
- Cc1c(C(=O)N/N=C/c2ccc(Cl)cc2)[nH]c2ccc(Cl)cc12 — higher, 12.4%
- Cc1cc(C)cc(N=C2SC(CC(=O)Nc3ccccc3)C(=O)N2CCN2CCOCC2)c1 (centres unmarked) — higher, -5.35%
- O=C(COc1ccc(Cl)cc1)NCc1nnc(SCC(=O)Nc2ccccc2F)o1 — higher, -2.16%
- COc1cc(CC(C#N)(CO)c2nc3ccccc3[nH]2)ccc1OC(F)F (centres unmarked) — higher, -18.9%
- COc1ccccc1C(O)P(=O)(OCC(C)C)c1ccc(N(C)C)cc1 (centres unmarked) — higher, -0.204%
- Cn1cc(CN2CCN(Cc3ccccc3)CC2)c(-c2cccc(Cl)c2)n1 — lower, -53%
- COc1ccc(CN(C)C(=O)c2cc(S(=O)(=O)N3CCCCCC3)ccc2OC)cc1OC — higher, -16.9%
- CCC1CCCCN1CCCNC(=O)Cn1nc(C)n2nc(-c3ccccc3)cc2c1=O (centres unmarked) — lower, -45.2%
- Cc1nn(C(=O)N2CCOCC2)c(C)c1CN1C(=O)c2ccccc2C1=O — higher, 2.27%
- Cc1c(NC(=O)c2ccc3ncccc3c2)c(=O)n(-c2ccccc2)n1C — higher, 27.3%
- CCCc1nnc(SCC(=O)Nc2ccc(OC)cc2)o1 — higher, 28.8%
- CC(=O)c1c(C)n(C2CCCCC2)c2ccc(O)cc12 — higher, 2.36%
- Cl.OCCCCNCc1ccc(OCc2ccccc2Cl)cc1 — higher, -15.9%
- CC1C/C(=N\NC(=S)NCc2ccccc2)CC(C)(C)C1 (centres unmarked) — higher, -8.07%
- CCn1c(SCC(=O)Nc2ccc3[nH]c(=O)[nH]c3c2)nc2ccccc21 — higher, 11.8%
- COc1ccccc1C1NC(=O)CS1 (centres unmarked) — higher, -15.3%
- Cc1cccc(NC(=O)C2=C(O)c3ccccc3N(C)S2(=O)=O)c1 — higher, 22.9%
- O=C(CCSc1nnc(-c2ccncc2)o1)Nc1ccccc1 — higher, 1.1%
- O=C(Nc1ccc(F)c(Cl)c1)C1CCCC1 — higher, 25.2%
- Fc1ccc(-c2cc(C(F)(F)F)nc(N3CCCCC3)n2)cc1 — higher, 19.5%
- CN(CC(=O)Nc1ccc(Cl)cc1)CC(=O)Nc1cccc2ccccc12 — higher, -2.26%
- COc1ccc(-n2c(O)cnc2Nc2nc(C)cc(C)n2)cc1OC — higher, 4.1%
- CCOc1ccc(NS(=O)(=O)c2cc(C(=O)N3CCC3)ccc2Cl)cc1 — higher, -10%
- CC1CC(C)CN(C(=O)c2ccc3ncsc3c2)C1 (centres unmarked) — higher, 8.74%
- CC(C)CC(OC(=O)c1nsc(Cl)c1Cl)C(=O)NCc1cccs1 (centres unmarked) — higher, 7.86%
- COc1ccccc1NC(=O)CN1CCN(C(=O)c2ccco2)CC1 — higher, -22%
- Cn1cnnc1SCC(=O)NC(=O)NCc1ccccc1 — higher, 10.3%
- COc1ccc(C2=CC(=O)C[C@H](c3ccc(F)cc3)C2)c(OC)c1 — higher, -1.06%
- CN(Cc1ccco1)S(=O)(=O)c1nnc(NC(=O)c2ccccc2Cl)s1 — higher, 15%
- N#C/C(=C(/O)COC(=O)c1ccc(O)cc1)c1nc2ccccc2[nH]1 — higher, 2.01%
- Cc1cccc(NC(=S)NCc2ccco2)c1C — higher, 12.6%
- COc1ccc(NC(=O)CSc2nnc(-c3cccnc3)o2)c(OC)c1 — higher, -15.4%
- COc1ccc(C(=O)NNC(=O)CNC(=O)C2CCCCC2)cc1 — higher, 14%
- Cc1ccccc1OCC(=O)NCC(C)(C)N1CCOCC1 — higher, 7.19%
- O=C(Cc1ccccc1)Nc1ccc(NC(=O)c2ccccc2)c(Cl)c1 — higher, 17.5%
- C/C=C/C(=O)Nc1cccc(C2=NOC3(C2)C[C@@H](C(N)=O)N(C(=O)c2cc([N+](=O)[O-])cc([N+](=O)[O-])c2C)C3)c1 (some centres unmarked) — higher, 11.3%
- O=C(Nc1ccccc1Br)c1ccc2nccnc2c1 — higher, 7.27%
- COC(=O)c1ccc(S(=O)(=O)N2CCC(c3nc4ccccc4o3)CC2)cc1 — higher, 1.99%
- COC(=O)Nc1sc2c(c1C(=O)NCc1ccco1)CCC2 — higher, -9.73%
- COc1ccc(N(C(=O)c2cccc(OC)c2OC)C2C=CS(=O)(=O)C2)cc1 (centres unmarked) — higher, -0.645%
- CCN(CC)CCCNC(=O)C1CCC(CNS(=O)(=O)c2c(C)cc(C)cc2C)CC1 (centres unmarked) — higher, -13.5%
- O=C(c1ccccc1F)c1cn(Cc2ccc(F)cc2)c2ccccc12 — higher, 1.38%
- COc1ccc(CCNC(=O)CCNS(=O)(=O)c2cccc3nonc23)cc1OC — higher, -0.148%
